# Test results from PubChem BioAssay AID1347073 (National Center for Advancing Translational Sciences (NCATS), 2019).
# Hit rate of the full screen: of about 45,000 compounds, about 200 (0.44%) were called active. Inconclusive results (about 7%) are left out. Calls follow the shape of the dose curve; as a rule, active = well fitted activation curve with a large enough effect; inconclusive = small, poorly fitted or top-dose-only effect; inactive = no such curve, though single readings can be large or run the other way. This is one part of the list.
# Test: qHTS of TDP-43 Inhibitors: NCGC Sytravon Library Screen; also: 0% is about no effect; nearly all actives have a fitted effect of over 55% in size
# Details: yeast TDP-43 toxicity rescue, BacTiter-Glo growth, 24 h; series mostly up to 46.1 µM; growth rescue (activation): at the top concentration
# Text: The goal of this project is to identify new chemical probes capable of reversing the toxicity associated with TDP-43 which is associated with frontotemporal lobar degeneration and amyotrophic lateral sclerosis. These compounds will provide a complementary approach to deciphering the tangled mechanisms of toxicity and protection that we have uncovered through genome-wide genetic screens and are beginning to uncover in a large-scale proteomics analysis with mass spectroscopy. To this end, a miniaturized assay was developed to be screened against the Molecular Libraries Small Molecule Repository (MLSMR) to discover TDP-43 inhibitors. Please note that in the set-up this yeast-based assay compounds that inhibit as TDP-43, have a read-out as activators. NIH Chemical Genomics Center [NCGC] NIH Molecular Libraries Probe Centers Network [MLPCN] Assay Submitter (PI): Susan Lindquist, Whitehead Institute/MIT MLPCN Grant: R21 NS060957
# Dispense 2.5 microL yeast galactose medium per 1536-well plate, pin compound, dispense 2.5 microL TDP-43 expressing yeast in galactose medium at OD600=0.02 (pregrown in raffinose medium to mid-log phase) per well, incubate for 24 hr at 30 deg C, and cell growth will be measured using 5 microL of Bactiter/Glo reagent to entire plate and read using Luminescence Protocol in ViewLux.
row,SMILES,growth rescue (activation)
1,Cc1ccccc1NC(=O)COC(=O)C1C2CC3OC(=O)C1C3C2 (centres undefined),inactive: 0.381%
2,CC(C)c1nnc(NC(=O)C2CCN(C(=O)Nc3ccccc3)CC2)s1,inactive: 2.52%
3,CCOC(=O)C1=C(c2ccccc2)NC(=O)N(C(C)=O)C1c1cccc([N+](=O)[O-])c1 (centres undefined),inactive: -17.1%
4,Cc1ccc(S(=O)(=O)N(C)CC(=O)OCC(=O)NC(=O)Nc2ccc3c(c2)OCCO3)cc1,inactive: 4.96%
5,COc1cc(NC(=O)CSc2ccc(-c3ccccn3)nn2)cc(OC)c1,inactive: 20.4%
6,Cc1ccc(/C=N/NC(=O)c2cccnc2)s1,inactive: 1.53%
7,COC(=O)COc1ccc(S(=O)(=O)Nc2cc([N+](=O)[O-])ccc2C)cc1,inactive: 10.2%
8,O=C(CSCc1ccccc1Br)N/N=C/c1ccc(OCC(=O)N2CCCCC2)cc1,inactive: 6.91%
9,CCN(CC(=O)NCc1ccco1)S(=O)(=O)c1ccc(OC)cc1,inactive: 10.8%
10,CCN1CCCC1Cn1cnc2c([nH]c3ccc(C)cc32)c1=O (centres undefined),inactive: 27%
11,Cc1cc(N2CCN(C)CC2)nc2ccc(NC(=O)CCC(=O)NCCc3ccc(Cl)cc3)cc12,inactive: 7.63%
12,Cc1ccc(Nc2c(-c3ccccn3)nc3cc(C)ccn23)cc1,inactive: 2.63%
13,COc1ccc(NC(NC(=O)c2cccnc2)C(Cl)(Cl)Cl)cc1 (centres undefined),inactive: 1.47%
14,COc1cc(C(C)=O)ccc1OCC(O)CN1CCN(c2ccccn2)CC1 (centres undefined),inactive: 1.75%
15,Cn1c(SCC2CCCO2)nnc1-c1cccc([N+](=O)[O-])c1 (centres undefined),inactive: 7.12%
16,Cc1ccn2c(CNC(C)CCn3cccn3)c(C(=O)N3CCCCCC3)nc2c1 (centres undefined),inactive: 5.45%
17,O=c1c2c(nc3c(-c4ccccc4)c[nH]n13)CCCC2,inactive: -2.33%
18,CCc1nnc(NC(=O)COc2ccc3c(c2)OCO3)s1,inactive: 2.1%
19,Cc1cc(NC(=O)COc2ncnc3sc(C)c(C)c23)no1,inactive: 6.67%
20,O=S(=O)(Cc1cc(-c2ccccc2Cl)no1)c1ccccc1,inactive: 29%
21,NS(=O)(=O)c1ccc(NC(=O)CCCCC(=O)Nc2ccc(S(N)(=O)=O)cc2)cc1,inactive: 12%
22,COC(=O)c1cc(C#N)c(N2CCOCC2)nc1C,inactive: 3.35%
23,O=C(Nc1ccccn1)c1ccc2c(c1)OCO2,inactive: 15.7%

row,SMILES,growth rescue (activation)
1,CC(C)OC(=O)c1ccc(S(N)(=O)=O)o1,inactive: 3.77%
2,CCc1cc(CNC(=O)C2CCC(=O)N(CCc3ccc(OC)cc3)C2)on1 (centres undefined),inactive: 5.42%
3,CCOc1ccccc1CN1CCNC(=O)C1CC(=O)NCc1nc(C)cs1 (centres undefined),inactive: 3.96%
4,CC(C)c1ccc(NC(=S)NC2CCCCCC2)cc1,inactive: 11.5%
5,COc1cccc(CN2CC(C(=O)NCCCc3ccncc3)CCC2=O)c1 (centres undefined),inactive: 20.3%
6,O=C1N(c2ccc(Cl)cc2)C(c2ccccc2)N2CCCN12 (centres undefined),inactive: 12.1%
7,C=CCC(C=C)[N+]1(CC(=O)OC)CCCCC1 (centres undefined),inactive: -7.64%
8,COc1ccc(-n2c(C)cc(-c3cn4cccc(C)c4n3)c2C)cc1,inactive: -4.37%
9,CCOC(=O)C1CCN(C(=O)CNC(=O)c2nn(-c3ccc(OC)c(OC)c3)c(=O)c3ccccc23)CC1,inactive: 21.3%
10,CSCC(C)N1CCC(CO)(CCc2ccccc2)CC1 (centres undefined),inactive: -3.58%
11,O=C(NC12CC3CC(CC(C3)C1)C2)N1CCN(C(=O)c2ccco2)CC1,inactive: -2.79%
12,Cc1c(Cl)cnc(NC(=O)COC(=O)c2ccc3ncsc3c2)c1Cl,inactive: -0.649%
13,COc1ccc2c(c1)C(=O)N(Cc1ccccc1)C(=O)C2(C)C,inactive: 7.88%
14,Cc1cc(C)c2nc3nc(C)c(C)cc3c(N)c2c1,inactive: 1.92%
15,CCc1ccc(OC2(C)CCN(Cc3ccc4c(c3)OCCO4)C2)cc1 (centres undefined),inactive: -0.818%
16,O=c1[nH]c2c(oc3ccccc32)c(=O)n1Cc1ccccc1,inactive: -16.2%
17,N=c1n(CCN2CCCCC2)c2ccccc2n1CC(=O)c1cccs1,inactive: 25.1%
18,FC(F)C(F)(F)Oc1cccc(Nc2nccn3c(-c4ccc5ccccc5c4)cnc23)c1,inactive: 11.1%
19,c1ccc(Cc2nnc3n2N=C(c2ccccc2)CS3)cc1,inactive: 7.66%
20,CC(=O)c1ccc(N2CCN(C(=O)c3nn(Cc4ccccc4)c(=O)c4ccccc34)CC2)cc1,inactive: 21.1%
21,Cc1c(NC(=O)c2ccc3c(c2)C(=O)N(Cc2ccco2)C3=O)cccc1C(=O)O,inactive: -10.5%
22,Cc1cc2c(=O)n(C)c(SCC(=O)NC3CCCC3)nc2s1,inactive: 2.95%
23,O=C(O)c1cccc(S(=O)(=O)N2CCN(Cc3ccc4c(c3)OCO4)CC2)c1,inactive: -5.95%

row,SMILES,growth rescue (activation)
1,COc1ccccc1C(=O)OCC(=O)NC1CCCC1,inactive: 8.87%
2,CC(=O)C1=C(O)C(=O)N(CCC(=O)O)C1c1ccccc1[N+](=O)[O-] (centres undefined),inactive: 10.7%
3,CCN1C(=O)[C@@H]2C(C(=O)c3cnccn3)=NN[C@@H]2C1=O,inactive: -22%
4,CC(C)[C@@H](C(=O)OCC(=O)c1ccc2c(c1)NC(=O)CO2)N1C(=O)c2ccccc2C1=O,inactive: 11.8%
5,COc1cc(/C=N/n2c(C)n[nH]c2=S)ccc1OCc1ccc(F)cc1,inactive: 18.4%
6,N#C/C(=C\c1cn(Cc2ccccc2)c2ccccc12)C(=O)NCc1ccco1,inactive: -1.09%
7,CCOc1ccc(N(CC(=O)Nc2c(C)cccc2C)S(=O)(=O)c2c(C)[nH]c(=O)[nH]c2=O)cc1,inactive: -45.2%
8,O=C(NCCc1cccc(Cl)c1)C1CCC(=O)N(Cc2ccc(Cl)cc2)C1 (centres undefined),inactive: 8.29%
9,CC(C)c1ccc(OCC(=O)Nc2ccncc2)cc1,inactive: -6.8%
10,Nc1cc(-c2ccc(Br)cc2)[nH]n1,inactive: 12.3%
11,Cc1ccc(NC(=O)C(=O)C2C(=O)Nc3ccccc32)cc1 (centres undefined),inactive: -39.2%
12,CC(CNC(=O)c1cncc(O)c1)NC(=O)c1cncc(O)c1 (centres undefined),inactive: -18%
13,Cc1c(N=C2Nc3cccc4cccc2c34)c(=O)n(-c2ccccc2)n1C,inactive: 0.508%
14,CSc1ccc(CN2CCC2(C)C(=O)NC2CCN(Cc3ccccc3)CC2)cc1 (centres undefined),inactive: 11.8%
15,CC1CCN(S(=O)(=O)c2cccc(C(=O)NNC(=O)c3ccco3)c2)CC1,inactive: -5.08%
16,Cc1cc(C)n2nc(C(=O)N3CCN(Cc4ccc5c(c4)OCO5)CC3)nc2n1,inactive: 8.78%
17,O=C1CC(N2CCSCC2)C(=O)N1c1cccc(Br)c1 (centres undefined),inactive: -10.1%
18,O=C(CCCN1C(=O)/C(=C\c2ccco2)SC1=S)Nc1ccc(O)cc1C(=O)O,inactive: -3.41%
19,Cc1cc(C)cc(C(O)c2ncc(-c3ccccc3C)[nH]2)c1 (centres undefined),inactive: 21.2%
20,CN(C)C(CNC(=O)c1cc(S(=O)(=O)N(C)c2ccccc2)ccc1Cl)c1ccccc1 (centres undefined),inactive: -0.446%
21,Cc1nn(C(=O)c2ccco2)c(C)c1Br,inactive: 0.813%
22,COc1cc(/C=C2\CCCc3c2nc2ccccc2c3C(=O)O)cc(Br)c1O,inactive: -3.21%
23,Cc1cc2c(cc1S(=O)(=O)N1CCOCC1)NC(=O)CO2,inactive: 3.62%
